From the supplement of paper PMC8728848
The other results are listed elsewhere or left out.

How the values were obtained:
Experiment in all cases: glycan array binding signal (z-score within array); higher = stronger binding
Conditions in all cases: glycan notation: IUPAC condensed, linker removed
Glc(b1-6)Glc = biological target: Glc(b1-6)Glc
Outline: (§1)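 From the Consortium for Functional Glycomics database, 3228 arrays were curated, keeping only those whose protein sequence was available. Binding is given as a within-array Z-score averaged across arrays sharing a protein sequence and across linkers. Negative Z-scores can be read as non-binding.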

GlcA(b1-3)Gal = biological target: GlcA(b1-3)Gal
Outline: as §1

GlcA(b1-3)GlcNAc = biological target: GlcA(b1-3)GlcNAc
Outline: as §1

GlcA(b1-6)Gal = biological target: GlcA(b1-6)Gal
Outline: as §1

[1] = biological target: GlcA3S(b1-3)Gal(b1-4)GlcNAc(b1-2)Man
Outline: as §1

[2] = biological target: GlcA3S(b1-3)Gal(b1-4)GlcNAc(b1-3)Gal(b1-4)Glc
Outline: as §1

[3] = biological target: GlcNAc(a1-3)Gal(b1-4)GlcNAc
Outline: as §1

[4] = biological target: GlcNAc(a1-4)Gal(b1-3)GlcNAc
Outline: as §1

[5] = biological target: GlcNAc(a1-4)Gal(b1-4)GalNAc
Outline: as §1

[6] = biological target: GlcNAc(a1-4)Gal(b1-4)GlcNAc
Outline: as §1

[7] = biological target: GlcNAc(a1-4)Gal(b1-4)GlcNAc(b1-3)Gal(b1-4)Glc
Outline: as §1

[8] = biological target: GlcNAc(a1-4)Gal(b1-4)GlcNAc(b1-3)Gal(b1-4)GlcNAc
Outline: as §1

[9] = biological target: GlcNAc(a1-4)Gal(b1-4)GlcNAc(b1-3)Gal(b1-4)GlcNAc(b1-3)Gal(b1-4)GlcNAc
Outline: as §1

[10] = biological target: GlcNAc(a1-4)Gal(b1-4)GlcNAc(b1-3)Gal(b1-4)[Fuc(a1-3)]GlcNAc(b1-3)Gal(b1-4)[Fuc(a1-3)]GlcNAc
Outline: as §1

[11] = biological target: GlcNAc(a1-6)Gal(b1-4)GlcNAc
Outline: as §1

[12] = biological target: GlcNAc(b1-2)Gal(b1-3)GalNAc
Outline: as §1

[13] = biological target: GlcNAc(b1-2)Man(a1-3)[GlcNAc(b1-2)Man(a1-6)]Man(b1-4)GlcNAc(b1-4)GlcNAc
Outline: as §1

[14] = biological target: GlcNAc(b1-2)Man(a1-3)[GlcNAc(b1-2)Man(a1-6)]Man(b1-4)GlcNAc(b1-4)[Fuc(a1-6)]GlcNAc
Outline: as §1

[15] = biological target: GlcNAc(b1-2)Man(a1-3)[GlcNAc(b1-4)][GlcNAc(b1-2)Man(a1-6)]Man(b1-4)GlcNAc(b1-4)GlcNAc
Outline: as §1

[16] = biological target: GlcNAc(b1-2)Man(a1-3)[GlcNAc(b1-4)][GlcNAc(b1-2)Man(a1-6)]Man(b1-4)GlcNAc(b1-4)[Fuc(a1-6)]GlcNAc
Outline: as §1

[17] = biological target: GlcNAc(b1-2)[GlcNAc(b1-4)]Man(a1-3)[GlcNAc(b1-2)Man(a1-6)]Man(b1-4)GlcNAc(b1-4)GlcNAc
Outline: as §1

[18] = biological target: GlcNAc(b1-2)[GlcNAc(b1-4)]Man(a1-3)[GlcNAc(b1-4)][GlcNAc(b1-2)Man(a1-6)]Man(b1-4)GlcNAc(b1-4)GlcNAc
Outline: as §1

[19] = biological target: GlcNAc(b1-2)[GlcNAc(b1-4)]Man(a1-3)[GlcNAc(b1-4)][GlcNAc(b1-2)[GlcNAc(b1-6)]Man(a1-6)]Man(b1-4)GlcNAc(b1-4)GlcNAc
Outline: as §1

[20] = biological target: GlcNAc(b1-2)[GlcNAc(b1-4)]Man(a1-3)[GlcNAc(b1-4)][GlcNAc(b1-2)[GlcNAc(b1-6)]Man(a1-6)]Man(b1-4)GlcNAc(b1-4)[Fuc(a1-6)]GlcNAc
Outline: as §1

[21] = biological target: GlcNAc(b1-2)[GlcNAc(b1-6)]Man(a1-6)[GlcNAc(b1-2)Man(a1-3)]Man(b1-4)GlcNAc(b1-4)GlcNAc
Outline: as §1

[22] = biological target: GlcNAc(b1-2)[GlcNAc(b1-6)]Man(a1-6)[GlcNAc(b1-2)Man(a1-3)]Man(b1-4)GlcNAc(b1-4)[Fuc(a1-6)]GlcNAc
Outline: as §1

[23] = biological target: GlcNAc(b1-2)[GlcNAc(b1-6)]Man(a1-6)[GlcNAc(b1-4)][GlcNAc(b1-2)Man(a1-3)]Man(b1-4)GlcNAc(b1-4)GlcNAc
Outline: as §1

GlcNAc(b1-3)Fuc = biological target: GlcNAc(b1-3)Fuc
Outline: as §1

GlcNAc(b1-3)Gal = biological target: GlcNAc(b1-3)Gal
Outline: as §1

[24] = biological target: GlcNAc(b1-3)Gal(b1-3)GalNAc
Outline: as §1

GlcNAc(b1-3)Gal(b1-4)Glc = biological target: GlcNAc(b1-3)Gal(b1-4)Glc
Outline: as §1

[25] = biological target: GlcNAc(b1-3)Gal(b1-4)GlcNAc
Outline: as §1

[26] = biological target: GlcNAc(b1-3)Gal(b1-4)GlcNAc(b1-2)Man(a1-3)[GlcNAc(b1-3)Gal(b1-4)GlcNAc(b1-2)Man(a1-6)]Man(b1-4)GlcNAc(b1-4)GlcNAc
Outline: as §1

[27] = biological target: GlcNAc(b1-3)Gal(b1-4)GlcNAc(b1-2)Man(a1-3)[GlcNAc(b1-3)Gal(b1-4)GlcNAc(b1-2)Man(a1-6)]Man(b1-4)GlcNAc(b1-4)[Fuc(a1-6)]GlcNAc
Outline: as §1

[28] = biological target: GlcNAc(b1-3)Gal(b1-4)GlcNAc(b1-2)[GlcNAc(b1-3)Gal(b1-4)GlcNAc(b1-6)]Man(a1-6)[GlcNAc(b1-3)Gal(b1-4)GlcNAc(b1-2)Man(a1-3)]Man(b1-4)GlcNAc(b1-4)GlcNAc
Outline: as §1

[29] = biological target: GlcNAc(b1-3)Gal(b1-4)GlcNAc(b1-3)Gal(b1-4)GlcNAc
Outline: as §1

[30] = biological target: GlcNAc(b1-3)Gal(b1-4)GlcNAc(b1-3)Gal(b1-4)GlcNAc(b1-2)Man(a1-3)[GlcNAc(b1-3)Gal(b1-4)GlcNAc(b1-3)Gal(b1-4)GlcNAc(b1-2)Man(a1-6)]Man(b1-4)GlcNAc(b1-4)GlcNAc
Outline: as §1

[31] = biological target: GlcNAc(b1-3)Gal(b1-4)GlcNAc(b1-3)Gal(b1-4)GlcNAc(b1-2)Man(a1-3)[GlcNAc(b1-3)Gal(b1-4)GlcNAc(b1-3)Gal(b1-4)GlcNAc(b1-2)Man(a1-6)]Man(b1-4)GlcNAc(b1-4)[Fuc(a1-6)]GlcNAc
Outline: as §1

[32] = biological target: GlcNAc(b1-3)Gal(b1-4)GlcNAc(b1-3)Gal(b1-4)GlcNAc(b1-2)[GlcNAc(b1-3)Gal(b1-4)GlcNAc(b1-3)Gal(b1-4)GlcNAc(b1-6)]Man(a1-6)[GlcNAc(b1-3)Gal(b1-4)GlcNAc(b1-3)Gal(b1-4)GlcNAc(b1-2)Man(a1-3)]Man(b1-4)GlcNAc(b1-4)[Fuc(a1-6)]GlcNAc
Outline: as §1

[33] = biological target: GlcNAc(b1-3)Gal(b1-4)GlcNAc(b1-3)Gal(b1-4)GlcNAc(b1-3)Gal(b1-4)GlcNAc(b1-2)Man(a1-3)[GlcNAc(b1-3)Gal(b1-4)GlcNAc(b1-3)Gal(b1-4)GlcNAc(b1-3)Gal(b1-4)GlcNAc(b1-2)Man(a1-6)]Man(b1-4)GlcNAc(b1-4)GlcNAc
Outline: as §1

[34] = biological target: GlcNAc(b1-3)Gal(b1-4)GlcNAc(b1-3)Gal(b1-4)GlcNAc(b1-3)Gal(b1-4)GlcNAc(b1-2)Man(a1-3)[GlcNAc(b1-3)Gal(b1-4)GlcNAc(b1-3)Gal(b1-4)GlcNAc(b1-3)Gal(b1-4)GlcNAc(b1-2)Man(a1-6)]Man(b1-4)GlcNAc(b1-4)[Fuc(a1-6)]GlcNAc
Outline: as §1

[35] = biological target: GlcNAc(b1-3)Gal(b1-4)GlcNAc(b1-3)Gal(b1-4)GlcNAc(b1-3)Gal(b1-4)GlcNAc(b1-2)[GlcNAc(b1-3)Gal(b1-4)GlcNAc(b1-3)Gal(b1-4)GlcNAc(b1-3)Gal(b1-4)GlcNAc(b1-6)]Man(a1-6)[GlcNAc(b1-3)Gal(b1-4)GlcNAc(b1-3)Gal(b1-4)GlcNAc(b1-3)Gal(b1-4)GlcNAc(b1-2)Man(a1-3)]Man(b1-4)GlcNAc(b1-4)[Fuc(a1-6)]GlcNAc
Outline: as §1

[36] = biological target: GlcNAc(b1-3)Gal(b1-4)GlcNAc(b1-3)Gal(b1-4)GlcNAc(b1-3)Gal(b1-4)GlcNAc(b1-3)Gal(b1-4)GlcNAc(b1-2)Man(a1-3)[GlcNAc(b1-3)Gal(b1-4)GlcNAc(b1-3)Gal(b1-4)GlcNAc(b1-3)Gal(b1-4)GlcNAc(b1-3)Gal(b1-4)GlcNAc(b1-2)Man(a1-6)]Man(b1-4)GlcNAc(b1-4)GlcNAc
Outline: as §1

[37] = biological target: GlcNAc(b1-3)Gal(b1-4)GlcNAc(b1-3)Gal(b1-4)GlcNAc(b1-3)Gal(b1-4)GlcNAc(b1-3)Gal(b1-4)GlcNAc(b1-2)Man(a1-3)[GlcNAc(b1-3)Gal(b1-4)GlcNAc(b1-3)Gal(b1-4)GlcNAc(b1-3)Gal(b1-4)GlcNAc(b1-3)Gal(b1-4)GlcNAc(b1-2)Man(a1-6)]Man(b1-4)GlcNAc(b1-4)[Fuc(a1-6)]GlcNAc
Outline: as §1

[38] = biological target: GlcNAc(b1-3)Gal(b1-4)GlcNAc(b1-3)Gal(b1-4)GlcNAc(b1-3)Gal(b1-4)GlcNAc(b1-3)Gal(b1-4)GlcNAc(b1-2)[GlcNAc(b1-3)Gal(b1-4)GlcNAc(b1-3)Gal(b1-4)GlcNAc(b1-3)Gal(b1-4)GlcNAc(b1-3)Gal(b1-4)GlcNAc(b1-6)]Man(a1-6)[GlcNAc(b1-3)Gal(b1-4)GlcNAc(b1-3)Gal(b1-4)GlcNAc(b1-3)Gal(b1-4)GlcNAc(b1-3)Gal(b1-4)GlcNAc(b1-2)Man(a1-3)]Man(b1-4)GlcNAc(b1-4)[Fuc(a1-6)]GlcNAc
Outline: as §1

B1: FliC (Pseudomonas aeruginosa), P72151 (protein)
chain: MALTVNTNIASLNTQRNLNASSNDLNTSLQRLTTGYRINSAKDDAAGLQISNRLSNQISGLNVATRNANDGISLAQTAEGALQQSTNILQRIRDLALQSANGSNSDADRAALQKEVAAQQAELTRISDTTTFGGRKLLDGSFGTTSFQVGSNAYETIDISLQNASASAIGSYQVGSNGAGTVASVAGTATASGIASGTVNLVGGGQVKNIAIAAGDSAKAIAEKMDGAIPNLSARARTVFTADVSGVTGGSLNFDVTVGSNTVSLAGVTSTQDLADQLNSNSSKLGITASINDKGVLTITSATGENVKFGAQTGTATAGQVAVKVQGSDGKFEAAAKNVVAAGTAATTTIVTGYVQLNSPTAYSVSGTGTQASQVFGNASAAQKSSVASVDISTADGAQNAIAVVDNALAAIDAQRADLGAVQNRFKNTIDNLTNISENATNARSRIKDTDFAAETAALSKNQVLQQAGTAILAQANQLPQAVLSLLR
glycan array binding signal (z-score) (Glc(b1-6)Glc): -0.164 | glycan array binding signal (z-score) (GlcA(b1-3)Gal): -0.112 | glycan array binding signal (z-score) (GlcA(b1-3)GlcNAc): -0.17 | glycan array binding signal (z-score) (GlcA(b1-6)Gal): -0.157 | glycan array binding signal (z-score) [1]: -0.13 | glycan array binding signal (z-score) [2]: -0.191 | glycan array binding signal (z-score) [3]: -0.152 | glycan array binding signal (z-score) [4]: -0.117 | glycan array binding signal (z-score) [5]: -0.194 | glycan array binding signal (z-score) [6]: -0.239 | glycan array binding signal (z-score) [7]: -0.112 | glycan array binding signal (z-score) [8]: -0.089 | glycan array binding signal (z-score) [9]: 0.478 | glycan array binding signal (z-score) [10]: 0.242 | glycan array binding signal (z-score) [11]: 0.195 | glycan array binding signal (z-score) [12]: -0.18 | glycan array binding signal (z-score) [13]: -0.158 | glycan array binding signal (z-score) [14]: -0.228 | glycan array binding signal (z-score) [15]: -0.119 | glycan array binding signal (z-score) [16]: -0.041 | glycan array binding signal (z-score) [17]: -0.095 | glycan array binding signal (z-score) [18]: 1.69 | glycan array binding signal (z-score) [19]: -0.202 | glycan array binding signal (z-score) [20]: -0.078 | glycan array binding signal (z-score) [21]: -0.142 | glycan array binding signal (z-score) [22]: -0.175 | glycan array binding signal (z-score) [23]: -0.117 | glycan array binding signal (z-score) (GlcNAc(b1-3)Fuc): -0.165 | glycan array binding signal (z-score) (GlcNAc(b1-3)Gal): -0.205 | glycan array binding signal (z-score) [24]: -0.01 | glycan array binding signal (z-score) (GlcNAc(b1-3)Gal(b1-4)Glc): -0.164 | glycan array binding signal (z-score) [25]: -0.176 | glycan array binding signal (z-score) [26]: -0.111 | glycan array binding signal (z-score) [27]: -0.182 | glycan array binding signal (z-score) [28]: -0.135 | glycan array binding signal (z-score) [29]: -0.119 | glycan array binding signal (z-score) [30]: 0.422 | glycan array binding signal (z-score) [31]: -0.044 | glycan array binding signal (z-score) [32]: -0.173 | glycan array binding signal (z-score) [33]: -0.032 | glycan array binding signal (z-score) [34]: -0.177 | glycan array binding signal (z-score) [35]: -0.145 | glycan array binding signal (z-score) [36]: 0.453 | glycan array binding signal (z-score) [37]: -0.055 | glycan array binding signal (z-score) [38]: 0.094
